Assay results taken from PubChem BioAssay AID1963576 (National Center for Advancing Translational Sciences (NCATS), 2024).
Screen size: about 46,000 compounds; about 60 (0.1%) were called active. Not shown: some 3% with an inconclusive outcome. Calls come from the whole dose curve; as a rule, active = well fitted inhibition curve with a large enough effect; inconclusive = small, poorly fitted or top-dose-only effect; inactive = no such curve, though single readings can be large or run the other way. The list shows a part of the results.

Test: Primary qHTS assay for Inhibitors of ovarian cancer metastasis using an organotypic tumor microenvironment (TME) model.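 For activity change, negative = inhibition: plate controls were DMSO wells for no effect and tomatine positive control wells for full effect.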 Note: nearly all actives have a fitted effect of over 65% in size.
Details: SKOV3ip1-GFP adhesion/invasion on 3D omental model, fluorescence; series mostly up to 45.8 µM; activity change, negative = inhibition: at the top concentration
Summary of the method: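 qHTS, 4-pt dose (0.36-46 umol/L); SKOV3ip1-GFP, 1,200 cells/well, no FBS; primary omental fibroblast/mesothelial co-culture 48 h pre-grown; 2 h RT + 16 h 37 C; PBS wash, 4% PFA; GFP count 488/509 nm.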

Activity change, negative = inhibition, inactive:
CCCCC12CN3CC(C)(CN(C1)C3c1cc(Br)ccc1O)C2=O (configuration not stated) 4.12%
COc1cc2c(-c3ccccc3C)nc3c(c(C)nn3-c3ccccc3)c2cc1OC -26.5%
O=C(Nc1ccc2nc(SCC(=O)N3CCCC3)sc2c1)c1ccccc1 -8.03%
O=C(Cn1c(=O)n(Cc2ccco2)c(=O)c2cccnc21)Nc1ccccc1F 0.825%
O=C(NCC(c1cccnc1)N1CCc2ccccc21)c1ccccc1Br (configuration not stated) -1.94%
Cc1ccc(NC2=C(c3ccc(C(F)(F)F)cc3)C(=O)c3ccccc32)cc1F 4.5%
Cc1ccc(N2CCN(c3nc4ccc(C)cc4n4nnnc34)CC2)c(C)c1 -11.1%
COc1cc(C(=O)Nc2ccc3nn(-c4ccc(F)cc4)nc3c2)cc(OC)c1OC -1.57%
CCOC(=O)c1noc2nc(C)n(CC(=O)Nc3cc(Cl)ccc3OC)c(=O)c12 -3.94%
CCCCn1c(=O)n(-c2ccc(Br)cc2F)c(=O)c2c3c(sc21)CN(C(C)=O)CC3 -7.19%
COc1ccc(CNC(=O)Cn2c(SCC(=O)N(C)c3ccccc3)nc3ccccc32)cc1 -0.432%
Cc1ccc(OCC(=O)Nc2c(C(=O)c3ccccc3)oc3ccccc23)cc1C 4.3%
Oc1c(C(c2ccccc2)N2CCN(Cc3ccccc3)CC2)sc2nc(-c3ccco3)nn12 (configuration not stated) 1.08%
Cc1ccc(CNC(=O)C2CCN(S(=O)(=O)N3CCC(C)CC3)CC2)cc1 -5.76%
CC(=O)Nc1nnc(SCc2cc(=O)c3cc(C)ccc3[nH]2)s1 -9.28%
COc1cc(Cl)c(C)cc1NC(=O)CCc1nc2cccnc2n1-c1ccccc1 9.87%
Nc1ncn([C@@H]2O[C@H](CO)[C@@H](O)[C@@H]2O)c(=O)n1 -1.9%
COc1ccc(-c2nnc(SCC(=O)Nc3cccc(F)c3)s2)cc1 3.43%
CCCCNC(=O)C1CCN(S(=O)(=O)c2cc(Br)cc3c2N(C(=O)CC)CC3)CC1 -4.99%
CCn1cc(C(=O)O)c(=O)c2ccc(C)nc21 -3.63%
Cc1ccc(NCc2cccn2-c2nnc(N3CCCCCC3)s2)cc1 46.2%
O=C(NCCCc1ccccc1)c1nn(-c2ccccc2F)nc1CO -8.11%
CC(=O)c1ccc(NC(=O)C2CCC(CNS(=O)(=O)c3ccc(Br)s3)CC2)cc1 (configuration not stated) 0.821%
O=C(NCCc1ccccc1)c1ccc(CSc2nc3cccnc3n2Cc2ccc(F)cc2)cc1 -9.08%
COC(=O)c1ccc(NC(=O)C2(S(=O)(=O)c3ccc(C)cc3)CC2)cc1 1.14%
Cc1ccc(CN2CCCn3nc(C(=O)NCCC(C)C)cc3C2=O)cc1 27.1%
COC(=O)c1sc(-c2ccccc2)cc1NC(=O)c1cccc(F)c1 -6.04%
COc1ccccc1-n1cc(-c2ccc(C)cc2)nc1S(=O)(=O)CC(=O)Nc1ccccc1C(F)(F)F -20%
COc1ccc(CNCCSc2nnnn2-c2ccccc2)cc1 -2.19%
COc1ccc(CC(=O)Nc2ccc3nc(Nc4cccc(Cl)c4)cc(C)c3c2)cc1OC -7.77%
Cc1ccc(S(=O)(=O)N2CCC(Oc3ccc(-n4cnnn4)cc3)CC2)cc1 -5.85%
COc1ccccc1Nc1c2c(nc3ccc(NC(=O)/C=C/c4cccc(OC)c4OC)cc13)CCCC2 -14.3%
COc1ccc2nc(N(Cc3cccnc3)C(=O)CCc3ccccc3)sc2c1 -18.1%
COc1cc(OC)c(NC(c2nnc(-c3ccccc3)o2)c2ccc(F)cc2Cl)cc1Cl (configuration not stated) -5.55%
CCOc1ccccc1-c1nc(-c2ccc(-c3ccccc3)nc2OCC)no1 -1.7%
COc1ccccc1NC(=O)CSc1nnc(-c2cccc(Cl)c2)o1 4.3%
CCn1cc(S(=O)(=O)c2cc(C)cc(C)c2)c(=O)c2cc(F)c(N3CCOCC3)cc21 1.94%
COc1ccc(CCNC(=O)c2ccc3c(c2)N(Cc2cccc(C)c2)C(=O)c2ccccc2S3(=O)=O)cc1OC -2.83%
CCc1ccc(-n2nnc(-c3nc(-c4ccccc4)no3)c2C)cc1 -4.4%
CCN(C(=O)Cn1c(C(=O)OC)cc2oc3ccccc3c21)c1cccc(C)c1 2.78%
Cc1ccc(CCNC(=O)CCc2cn(Cc3ccccc3C)c3ccccc23)cc1 9.8%
CCOC(=O)c1c(Oc2ccc(C(=O)OC)cc2)nnc(-c2ccccc2)c1-c1ccccc1 -11.3%
Cc1ccc(C)c(N(C)C(=O)c2cn(C)c(=O)c3ccccc23)c1 -1.26%
Cc1cc(C)cc(-n2cnc3cc(C(=O)NCCc4ccccc4)ccc32)c1 -16.8%
COc1cc(CN(C(=O)c2cc3ccccc3oc2=O)C2CCS(=O)(=O)C2)cc(OC)c1OC (configuration not stated) 19.2%
Brc1csc(CN2CCc3nc(Nc4ccccc4)ncc3C2)c1 3.65%
O=C(c1cccc(Cl)c1)n1nc(-c2ccco2)nc1NCc1cccs1 -10.5%
Cc1ccc(Cn2c(=O)n(CCCCC(=O)NCCc3ccc(Cl)cc3)c(=O)c3ccccc32)cc1 19.4%
COc1ccc(S(=O)(=O)N2CCN(c3ccc(F)cc3)CC2)cc1-c1noc(C)n1 -11.6%
CCc1nnc2c(Nc3ccc(Br)c(C)c3)nc3ccccc3n12 0.28%
O=C(NCc1ccccc1)c1cc(-c2cccc(Cl)c2)on1 -1.01%
CC1CCc2c(sc3nnn(Cc4ccc(F)cc4)c(=O)c23)C1 (configuration not stated) 6.05%
Cn1c(=O)c2c(n3c4ccccc4nc13)NC(=O)CC2c1ccccc1F (configuration not stated) -9.16%
Cc1cc(C)cc(OCC(=O)NCC(c2ccc(Cl)cc2)N2CCCCC2)c1 (configuration not stated) -17.6%
COC(=O)c1ccc(NC(=O)CC2C(=O)N(c3ccc(Cl)cc3)C(=O)N2Cc2cccs2)cc1 (configuration not stated) 0.334%
COc1ccccc1CCNC(=O)c1ccc2c(c1)c(C)c(C)n2C -9.58%
COc1ccc(NC(=O)CSc2ncc(-c3ccc(Cl)cc3)[nH]2)cc1OC -2.24%
COc1ccc(OC)c(N(CC(=O)NCc2ccccc2)S(=O)(=O)c2ccccc2)c1 4.7%
CCN(CC)S(=O)(=O)c1ccc2c(c1)N(CC(=O)Nc1c(C)cccc1C)C(=O)CO2 -4.6%
CCc1ccccc1NC(=O)Cn1nnc(C(=O)OC)c1C(=O)OC 1.19%
CCOC(=O)c1sc(N2C(=O)c3oc4cc(C)c(C)cc4c(=O)c3C2c2cccc(O)c2)nc1C (configuration not stated) 24.6%
CCOC(=O)c1sc2ccccc2c1S(=O)(=O)Nc1ccc(N(C)C)cc1 -3.03%
Cc1cc(S(=O)(=O)Nc2cccc(C(=O)O)c2)c(C)c(S(=O)(=O)c2ccccc2)c1 -7.66%
COc1ccc(-c2nc(C)c(CCNC(=O)C(=O)Nc3cccc(F)c3)s2)cc1OC 28.4%
CC1CCN(c2nc3c(S(=O)(=O)c4ccccc4)nnn3c3ccsc23)CC1 1.89%
CCc1ccccc1NC(=O)c1cc(S(=O)(=O)N(CC)c2ccccc2)ccc1F -2.53%
O=C1NC(=O)C(=Cc2ccc3nccnc3c2)S1 -12.8% [at 23.2 µM]
COc1ccccc1NC(=O)CCCOc1cc(=O)n(C)c2ccccc12 -4.03%
CCc1ccccc1NC(=O)Nc1nnc(N2CCCC2)s1 -23%
Cc1ccc(C)c(Cn2c(=O)n(Cc3ccccc3)c(=O)c3c(C)c(C)sc32)c1 11%
CCOC(=O)CCn1nc(-c2ccc(C)cc2)c2ccccc2c1=O -7.13%
O=C(CC1N=C2c3ccccc3N=C(SCC(=O)Nc3cccc(C(F)(F)F)c3)N2C1=O)NCc1cccs1 (configuration not stated) 1.65%
COc1ccc(CCNC(=O)c2nn(-c3ccc(C)cc3)c(=O)c3c2c2ccccc2n3C)cc1OC 15.4%
Cc1ccc(C)c(N2CCN(S(=O)(=O)c3ccc4oc(=O)c5ncn(C)c5c4c3)CC2)c1 4.87%
COc1cc(NC(=O)Cn2c(=O)n(Cc3ccccc3OC)c(=O)c3cccnc32)cc(OC)c1 -5.85%
Cc1ccc(C(=O)COC(=O)c2cc(-c3ccccc3)nc3ccccc23)cc1C -8.74%
COc1ccc(NC(=O)CCN2CCN(c3cccc(Cl)c3)CC2)cc1 -6.27%

outcome, inactive:
CCOc1cc(C(=O)Nc2ccc(-c3nc4cc(C)ccc4o3)cc2)cc(OCC)c1OCC
CCCN(CCC)C(=O)Cn1c(=O)n(-c2cccc(C(F)(F)F)c2)c(=O)c2c(C)c(C)sc21
COc1ccccc1CNC(=O)C(=O)NCC(c1cccs1)S(=O)(=O)c1ccc(F)cc1 (configuration not stated)
CC1=C(C(=O)OCC2CCCCC2)C(c2ccc(F)cc2F)CC(=O)N1 (configuration not stated)
Cc1csc2nc(COC(=O)c3ccc(NC(=O)COc4ccccc4F)cc3)cc(=O)n12
COc1ccc(NC(=O)Cn2c(SCc3cccc(Cl)c3)nc3ccncc32)c(OC)c1OC
CC1=C(C(=O)Nc2ccccc2)C(c2ccccc2)n2nc(-c3ccco3)nc2N1 (configuration not stated)
Cn1c(=O)cc(SCC(=O)NCc2ccc(F)cc2)c2ccc(Cl)cc21
CCOc1ccccc1NC(=O)CCn1c(-c2ccc(OC)cc2)cc(C(C)=O)c1C
CCOc1ccccc1NC(=O)C(C)Sc1cc(-c2ccccc2)nc(C)n1 (configuration not stated)
Cc1nc(-c2ccc(C)c(N3CCN(C(=O)Nc4ccccc4C(F)(F)F)CC3)c2)no1
O=C(NC(=O)c1cccc(F)c1)Nc1ccc(-c2cc(C(F)(F)F)nn2-c2ccccc2)cc1
Cc1ccc(C(=O)Nc2nnc(S(=O)(=O)N3CCOCC3)s2)cc1
O=C(NCc1ccc(F)cc1)C1CCN(C(=O)c2ccc(-n3ccc4ccccc43)s2)CC1
Cc1cccc(Cn2c(SCc3ccc(C(=O)N4CCCCCC4)cc3)nc3ccncc32)c1
Cc1cccc(NC(=O)c2cc(S(=O)(=O)N3CCCCC3)c[nH]2)c1C
O=C(CNC(=O)c1ccccc1Cl)OCc1cc(=O)n2ccsc2n1
CCc1ccc(NCc2cc3cc4c(cc3n(CC(=O)Nc3ccc(Cl)cc3)c2=O)OCO4)cc1
COC(=O)c1cc(NC(=O)CCc2c(C)nc3c4c(C)cc(C)nc4nn3c2C)cc(C(=O)OC)c1
CCc1ccc(CN(Cc2ccco2)C(=O)c2ccccc2Cl)cc1
